PubChem BioAssay AID485294 (National Center for Advancing Translational Sciences (NCATS), 2010)
Screen size: about 370,000 compounds; about 150 (0.041%) were called active. The inconclusive results got no clear call from the source; some entries with a clear call stand among them for comparison. The call rests on the fitted dose curve; in most records, active means well fitted inhibition curve with a large enough effect; inconclusive means small, poorly fitted or top-dose-only effect; inactive means flat fitted curve, though single readings scatter. Potencies of inconclusive entries are left out as doubtful fits.

Biological target: Beta-lactamase (Escherichia coli (strain K12)) (UniProt P00811)
Sequence of UniProt P00811 (P00811 whole entry, looked up): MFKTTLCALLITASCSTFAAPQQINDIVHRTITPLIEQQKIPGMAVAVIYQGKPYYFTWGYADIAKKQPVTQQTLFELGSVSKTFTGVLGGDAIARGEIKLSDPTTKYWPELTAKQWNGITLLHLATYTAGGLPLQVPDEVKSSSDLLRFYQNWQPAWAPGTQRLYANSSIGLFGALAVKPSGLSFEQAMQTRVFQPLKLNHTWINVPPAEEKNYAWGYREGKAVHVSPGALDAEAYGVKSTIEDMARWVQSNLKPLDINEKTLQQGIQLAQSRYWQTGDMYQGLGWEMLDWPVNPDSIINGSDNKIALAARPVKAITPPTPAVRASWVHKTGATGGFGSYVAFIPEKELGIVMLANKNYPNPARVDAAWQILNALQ
Assay: qHTS Inhibitors of AmpC Beta-Lactamase (assay with detergent); further: nearly all actives have a fitted effect of over 25% in size
Conditions: AmpC hydrolysis of nitrocefin, absorbance 480 nm, 0.01% Triton; series mostly up to 114 µM
How it was run: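 20 mM phosphate pH 7.0 + 0.01% (detergent screen) or 0.0001% Triton X-100; 5.3 nM AmpC reagent; cpd preinc 15 min RT; nitrocefin (800 uM stock) to start; A480 q20 s × 4 min; Activity was normalised to no-enzyme and no-compound control wells.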
Potency means the concentration at half of the fitted maximal effect; tags describe the fitted curve by direction and shape.

| SMILES | Potency |
| --- | --- |
| Cc1sc2ncnc(NCc3ccco3)c2c1C | inconclusive [inhibitor, full curve, poor fit] |
| COc1ccccc1-n1c(SCC(=O)Nc2cccc(C)c2)nc2c(c1=O)SCC2 | inconclusive [inhibitor, full curve, poor fit] |
| COc1cc(C2NC(=S)NC3=C2CCc2ccccc23)cc(OC)c1OC (centres undefined) | inactive |
| CC(=O)c1cccc(NC(=O)CN(Cc2ccccc2)S(C)(=O)=O)c1 | inconclusive [inhibitor, full curve, poor fit] |
| CC(C)C(=O)Nc1ccc(S(=O)(=O)N2CCC(c3nc4ccccc4[nH]3)CC2)cc1 | inconclusive [inhibitor, single point] |
| COCCn1c(-c2ccccc2)cnc1SCC(=O)Nc1cccc2ccccc12 | inconclusive [inhibitor, full curve] |
| ClCc1csc(-c2ccccc2Cl)n1 | inconclusive [inhibitor, full curve, poor fit] |
| Cn1c(=O)oc2cc(S(=O)(=O)NCCC(=O)NC3CCCC3)ccc21 | inconclusive [inhibitor, partial curve] |
| COCc1cc(CNC(=O)C2CCC(=O)N(Cc3ccccc3F)C2)[nH]n1 (centres undefined) | inactive |
| CS(=O)(=O)N(CC(=O)N1CCN(c2ccccc2F)CC1)C1CCCCC1 | inconclusive [inhibitor, single point] |
| COc1cccc(N2CCN(S(=O)(=O)c3ccc(-c4ccno4)cc3OC)CC2)c1 | inactive |
| CC(=O)Nc1ccc(NC(=O)C(Cc2ccccc2)NC(=O)C2CCC(C)CC2)cc1 (centres undefined) | inconclusive [inhibitor, full curve] |
| Fc1ccccc1Cc1noc(CN2CCC(OCc3cccnc3)CC2)n1 | inactive |
| Cc1nnc(Sc2nc3c(c(=O)[nH]c(=O)n3C)n2CCc2ccccc2)s1 | inactive |
| O=C(CSc1nc(-c2ccc(F)cc2)cc(C(F)(F)F)n1)NCCc1ccccc1 | inactive |
| Cc1ccc(C2SCCN2C(=O)c2ccc([N+](=O)[O-])cc2)cc1 (centres undefined) | inconclusive [inhibitor, single point] |
| O=S1(=O)N=C2CCCCCN2C(c2ccncc2)N1 (centres undefined) | inconclusive [inhibitor, full curve, poor fit] |
| CCOC(=O)c1c(S(=O)(=O)NCC2CCN(CCc3cccs3)CC2)c(C)n(C)c1C | inactive |
| CCN(CC(=O)Nc1ccc(NC(C)=O)cc1)C(=O)c1cn(-c2ccccc2)nc1-c1cccs1 | inconclusive [inhibitor, full curve] |
| COc1ccccc1-n1nnnc1SCC(=O)Nc1oc(C)c2c(C)n[nH]c(=O)c12 | inactive |
| Cc1ccc(C)c(N2CCN(C(=O)CN(C)S(=O)(=O)c3cnc[nH]3)CC2)c1 | inconclusive [inhibitor, single point] |
| COC(=O)CCSCC(=O)Nc1nnc(C)s1 | inconclusive [inhibitor, full curve] |
| CCN1/C(=C/C=C/c2sc3ccccc3[n+]2CC)Sc2ccccc21 | inconclusive [inhibitor, full curve, poor fit] |

| SMILES | Potency |
| --- | --- |
| Cn1cccc1CN1CCN(C(=O)COc2ccccc2)CC1 | inconclusive [inhibitor, partial curve] |
| Cc1nn(C(=O)c2ccc(Br)cc2)c(C)c1Sc1ccccc1 | inactive |
| O=C(Nc1cccc(C(=O)N2CCOCC2)c1)c1ccc([N+](=O)[O-])cc1 | inactive |
| COc1cc(OC)c(N(C)C(=O)c2sc3nc4n(c(=O)c3c2C)CCCC4)cc1Cl | inactive |
| COC(=O)c1ccc(NC2=CC(=O)CC(C)(C)C2)cc1 | inconclusive [inhibitor, full curve, poor fit] |
| Oc1ccc(N=Cc2ccc(OCc3ccccc3)cc2)cc1 | inactive |
| CC(C)(C)C(=O)Nc1nc(-c2ccc3c(c2)OCO3)cs1 | inconclusive [inhibitor, full curve, poor fit] |
| Cc1ccc(C)c(-c2nnc(NC(=O)CCS(=O)(=O)c3ccccc3)o2)c1 | inconclusive [inhibitor, full curve, poor fit] |
| Cc1ccc(Nc2nc3ccccc3nc2Nc2c(C)n(C)n(-c3ccccc3)c2=O)cc1 | inconclusive [inhibitor, partial curve, poor fit] |
| COc1ccccc1N(C)S(=O)(=O)c1ccc(C(=O)NCCc2ccc(F)cc2)cc1 | inconclusive [inhibitor, full curve] |
| Cc1ccnc(NC(=O)CNC(=O)c2sc3ccccc3c2Cl)c1 | inconclusive [inhibitor, partial curve, poor fit] |
| COc1ccc(NC(=O)COC(=O)C2CCC(C(C)(C)C)CC2)c([N+](=O)[O-])c1 (centres undefined) | inconclusive [inhibitor, single point] |
| CCCN1CCN(S(=O)(=O)c2ccc3c(c2)CCC(=O)N3)CC1 | inactive |
| CCN(c1cccc(C)c1)c1ncnc2c1cnn2-c1cccc(Cl)c1 | inactive |
| Cc1cc2c(cc(C(=O)OCC(=O)NCc3ccco3)n2C)s1 | inactive |
| COc1cccc(C(=O)Nc2sc(C(C)C)cc2C(N)=O)c1OC | inactive |
| CCOC(=O)c1nc(N)c(C(=O)OCC)[nH]1 | inactive |
| O=C(c1cc(-c2ccc(O)cc2)on1)N1CCN(c2ccccc2)CC1 | inactive |
| O=C(CSc1ccc(Cl)cc1)N1CCOCC1 | inconclusive [inhibitor, full curve, poor fit] |
| Nc1ccc(S(=O)(=O)N2CCc3ccccc32)cc1 | inconclusive [inhibitor, partial curve] |
| COc1ccc(NC(=O)c2ccc(Cl)c(S(=O)(=O)N3CCc4ccccc4C3)c2)cn1 | inconclusive [inhibitor, partial curve] |
| CCOC(=O)c1cc2c(=O)n3ccccc3nc2n(Cc2ccco2)c1=NC(=O)c1ccc(OCC)cc1 | inactive |
| CCOC(=O)N1CCC(n2c(=S)[nH]c3cc(OC)c(OC)cc3c2=O)CC1 | inconclusive [inhibitor, full curve] |

| SMILES | Potency |
| --- | --- |
| CC[C@H]1c2[nH]c3ccccc3c2C[C@H]2C(=O)N(c3ccc(F)cc3)C(=O)N21 | inactive |
| CCN(CCO)Cc1cn[nH]c1-c1ccc(C)c(C)c1 | inconclusive [inhibitor, partial curve, poor fit] |
| C/C(=N\Oc1cccc(F)n1)c1ccc(Cl)cc1Cl | inconclusive [inhibitor, full curve, poor fit] |
| CCOC(=O)Nc1sc(C(=O)N(CC)CC)c(C)c1C(=O)OCC | inconclusive [inhibitor, full curve, poor fit] |
| O=C1C2Sc3[nH]c(=O)sc3C(c3cc([N+](=O)[O-])ccc3O)C2C(=O)N1c1ccccc1 (centres undefined) | inactive |
| O=S(=O)(Nc1cccc(-c2ccc(N3CCCCCC3)nn2)c1)c1ccc(C(F)(F)F)cc1 | inconclusive [inhibitor, full curve, poor fit] |
| O=S1(=O)C=C(Sc2nnc(-c3ccccc3)o2)c2ccccc21 | inconclusive [inhibitor, partial curve, poor fit] |
| Cc1ccc(SC(C)C(=O)Nc2ncn[nH]2)cc1 (centres undefined) | inconclusive [inhibitor, single point] |
| COc1cc([C@H]2[C@@H]3CCCC[C@]3(O)CCN2Cc2ccccc2F)ccc1O | inactive |
| CC(C)CCNc1nc(N)c([N+](=O)[O-])c(NCC2CCCO2)n1 (centres undefined) | inconclusive [inhibitor, partial curve, poor fit] |
| Clc1cccc(Cl)c1OCCOCCNCc1ccccc1 | inconclusive [inhibitor, full curve, poor fit] |
| COCC(=O)N(CCc1ccccc1)Cc1cc2cc(C)ccc2nc1Cl | inconclusive [inhibitor, full curve, poor fit] |
| O=S(=O)(c1ccc2c(c1)OCCO2)N1CCN(c2ncnc3sccc23)CC1 | inactive |
| Cc1ccc(NC(=O)C(C)Sc2nnc(C)n2C)cc1 (centres undefined) | inactive |
| COc1ccc(C(=O)NCC(=O)N/N=C/c2ccco2)cc1OC | inconclusive [inhibitor, full curve, poor fit] |
| CC1(C)CC(=O)c2sc(NS(=O)(=O)c3ccccc3)nc2C1 | inactive |
| CCOC(=O)CSc1nnc(CNc2ccccc2Cl)n1-c1ccccc1 | inconclusive [inhibitor, partial curve, poor fit] |
| COc1cc(/C=N\Nc2cc(=O)n(C)c(=O)n2C)ccc1O | inconclusive [inhibitor, partial curve, poor fit] |
| COc1cccc(C2CC(c3ccccc3Cl)n3nc(N)nc3N2)c1 (centres undefined) | inconclusive [inhibitor, partial curve, poor fit] |
| CC(=O)Nc1ccc(NC(=O)CN(c2cc(Cl)ccc2Cl)S(C)(=O)=O)cc1 | inconclusive [inhibitor, full curve, poor fit] |
| CCc1ccc(NC(=O)Cn2cc(S(=O)(=O)N3CCCC3)c(S(=O)(=O)N3CCCC3)c2)cc1 | inactive |
| CCCCNS(=O)(=O)c1ccc(OC)c(C)c1 | inconclusive [inhibitor, full curve, poor fit] |
| COc1cc(C#N)ccc1OCC(=O)Nc1ccc(C)c(S(=O)(=O)N2CCOCC2)c1 | inconclusive [inhibitor, full curve, poor fit] |
